Measured values reported in the supplement of paper PMC8285479.
Counter-ions that a name gives are not always drawn. ± gives the standard deviation of the averaged measurements. In all, about 1,900 compounds were measured (“normalised cell viability (NPI; 0 = phenylarsine oxide control, 1 = DMSO control)”: median about 1, lowest 2% from about 0.039 on). Some of the results follow.

Tested on: NCI-H1944
Assay: normalised cell viability (NPI; 0 = phenylarsine oxide control, 1 = DMSO control) (fraction of DMSO control); NCI-H1944 is a non-small cell lung cancer line; higher = more viable cells (less compound toxicity)
Conditions: 6 days
[1] = glucocorticoid arm: hydrocortisone 2.75 uM co-treatment, compound 1 µM
[2] = glucocorticoid arm: hydrocortisone 2.75 uM co-treatment, compound 5 µM
[3] = glucocorticoid arm: hydrocortisone 2.75 uM pre-treated 2 days and continued, compound 1 µM
[4] = glucocorticoid arm: hydrocortisone 2.75 uM pre-treated 2 days and continued, compound 5 µM
[5] = glucocorticoid arm: vehicle, compound 1 µM
[6] = glucocorticoid arm: vehicle, compound 5 µM
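Note: CTB read-out in 384-well plates, mean of triplicate wells, normalised per plate against 1 µM phenylarsine oxide and 0.1% DMSO, compounds added 24 h after seeding.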

Row | Compound | normalised cell viability [1] | normalised cell viability [2] | normalised cell viability [3] | normalised cell viability [4] | normalised cell viability [5] | normalised cell viability [6]
1 | C=CC(=O)Nc1cc(Nc2nccc(-c3cn(C)c4ccccc34)n2)c(OC)cc1N(C)CCN(C)C | 0.891 ± 0.003 | 0.842 ± 0.022 | 0.944 ± 0.015 | 0.916 ± 0.034 | 0.789 ± 0.028 | 0.762 ± 0.045
2 | C#Cc1cccc(Nc2ncnc3cc4c(cc23)OCCOCCOCCO4)c1 [Icotinib] | 0.9603 ± 0.0029 | 0.983 ± 0.016 | 0.965 ± 0.019 | 0.949 ± 0.016 | 0.968 ± 0.019 | 0.958 ± 0.013
3 | CCc1c(C)[nH]c2c1C(=O)C(CN1CCOCC1)CC2 (stereo not given) [Molindone hydrochloride] | 0.98 ± 0.012 | 0.98 ± 0.017 | 1.003 ± 0.0064 | 1.02 ± 0.069 | 0.979 ± 0.003 | 0.9807 ± 0.0093
4 | NC(=O)CNCCC(c1ccccc1)c1ccccc1 [N-(3,3-Diphenylpropyl)glycinamide] | 1.01 ± 0.012 | 0.995 ± 0.021 | 1.01 | 1 ± 0.029 | 1.003 ± 0.0058 | 1.004 ± 0.0098
5 | C[C@H](NC(=O)/C(C#N)=C/c1cccc(Br)n1)c1ccccc1 | 1.01 ± 0.012 | 1.06 ± 0.032 | 1.02 ± 0.017 | 1.048 ± 0.0075 | 0.9985 ± 0.0098 | 0.0147 ± 0.011
6 | CCNC(=O)Nc1ccc(-c2nc3c(c(N4CCOC[C@@H]4C)n2)CCN(C2COC2)C3)cc1 | 0.956 ± 0.018 | 0.724 ± 0.023 | 0.965 ± 0.015 | 0.77 ± 0.027 | 0.961 ± 0.021 | 0.768 ± 0.066
7 | C[C@]12CC[C@@H]3c4ccc(O)cc4CC[C@H]3[C@@H]1CC[C@@H]2O [beta-Estradiol] | 0.9927 ± 0.005 | 0.954 ± 0.022 | 0.9937 ± 0.0055 | 0.962 ± 0.028 | 0.9753 ± 0.0031 | 0.9807 ± 0.0032
8 | CC(NC(=O)Cc1cc(F)cc(F)c1)C(=O)NC(C(=O)OC(C)(C)C)c1ccccc1 (stereo not given) | 0.983 ± 0.0036 | 0.95 ± 0.016 | 0.999 ± 0.01 | 0.982 ± 0.015 | 0.9947 ± 0.0032 | 0.9877 ± 0.0032
9 | OC(CN1CCC(Cc2ccc(F)cc2)CC1)c1ccc(Cl)cc1 (stereo not given) [Eliprodil] | 0.9487 ± 0.0064 | 0.9277 ± 0.0051 | 0.9827 ± 0.0091 | 0.971 ± 0.0076 | 0.9973 ± 0.0046 | 0.9967 ± 0.0058
10 | C[C@@H](Oc1ccc(Oc2cnc3ccc(Cl)cc3n2)cc1)C(=O)O | 1.004 ± 0.0098 | 0.88 ± 0.023 | 0.858 ± 0.29 | 1.05 ± 0.015 | 1.027 ± 0.0058 | 0.522 ± 0.054
11 | CN(C)CC/C=C1/c2ccccc2Sc2ccc(Cl)cc21 [Chlorprothixene hydrochloride] | 0.995 ± 0.002 | 0.905 ± 0.011 | 1.013 ± 0.0058 | 0.993 ± 0.038 | 0.9977 ± 0.004 | 0.974 ± 0.015
12 | CN(C)CC/C=C1/c2ccccc2Sc2ccc(Cl)cc21 [Chlorprothixene] | 0.983 ± 0.01 | 0.968 ± 0.018 | 0.994 ± 0.025 | 0.981 ± 0.013 | 0.986 ± 0.01 | 0.993 ± 0.0027
13 | N.N.N.N.N.N.N.N.N.N.N.N.N.N.O.O.[Cl-].[Cl-].[Cl-].[Cl-].[Cl-].[Cl-].[Ru+4].[Ru+5].[Ru+5] [Ruthenium red] | 0.991 ± 0.01 | 0.974 ± 0.021 | 1.01 ± 0.027 | 0.987 ± 0.023 | 0.995 ± 0.0052 | 0.973 ± 0.0087
14 | CC(=O)[C@H]1CC[C@H]2[C@@H]3CCC4=CC(=O)CC[C@]4(C)[C@H]3CC[C@]12C [Progesterone] | 1.01 ± 0.01 | 1.037 ± 0.0058 | 1.02 ± 0.01 | 1.08 ± 0.084 | 0.996 ± 0.0035 | 1 ± 0.015
15 | CCOC(=O)CCNc1cc(N2CCc3ccccc3CC2)nc(-c2ccccn2)n1 | 0.9937 ± 0.0035 | 1.02 ± 0.018 | 0.989 ± 0.0076 | 1.02 ± 0.015 | 0.9893 ± 0.0031 | 0.9767 ± 0.0015
16 | CN(C)CCOC(c1ccccc1)c1ccccc1 [Diphenhydramine hydrochloride] | 0.994 ± 0.014 | 0.965 ± 0.014 | 0.992 ± 0.017 | 0.995 ± 0.027 | 0.981 ± 0.002 | 0.9863 ± 0.0042
17 | N=C(N)NC(=O)Cc1c(Cl)cccc1Cl [Guanfacine hydrochloride] | 1.017 ± 0.0058 | 0.986 ± 0.023 | 1.03 ± 0.026 | 1.01 ± 0.027 | 1.017 ± 0.0058 | 1.02
18 | C[n+]1cc2c3c(ccc2c2ccc4cc5c(cc4c21)OCO5)OCO3 [Sanguinarine chloride] | 1.04 ± 0.011 | -0.0014 ± 0.001 | 0.903 ± 0.2 | -0.00109 ± 0.00052 | 0.983 ± 0.037 | -0.000203 ± 0.00043
19 | Nc1ncnc2c1ncn2[C@@H]1O[C@H](CO)[C@@H](O)[C@H]1O [Adenosine] | 0.9973 ± 0.0046 | 1.01 ± 0.01 | 0.995 ± 0.015 | 0.987 ± 0.019 | 1 ± 0.015 | 1.003 ± 0.0058
20 | O=C(c1ccc(Nc2nccc(-c3cc4ccccc4s3)n2)cc1)N1CCC(N2CCCC2)CC1 [IKK-16 (IKK Inhibitor VII)] | 0.901 ± 0.0072 | 0.626 ± 0.03 | 0.913 ± 0.015 | 0.837 ± 0.021 | 0.9453 ± 0.0065 | 0.0503 ± 0.008
21 | CC(=O)O[C@@]12CO[C@@H]1C[C@H](O)[C@@]1(C)C(=O)[C@H](O)C3=C(C)[C@@H](OC(=O)[C@H](O)[C@@H](NC(=O)OC(C)(C)C)c4ccccc4)C[C@@](O)([C@@H](OC(=O)c4ccccc4)[C@H]21)C3(C)C [Docetaxel] | 0.159 ± 0.0035 | 0.163 ± 0.0095 | 0.462 ± 0.023 | 0.518 ± 0.015 | 0.049 ± 0.0034 | 0.0428 ± 0.0097
22 | COc1ccccc1N1CCN(CCN(C(=O)C2CCCCC2)c2ccccn2)CC1 | – | – | – | 1 | – | –
23 | Nc1ccn([C@@H]2O[C@H](CO)[C@@H](O)C2(F)F)c(=O)n1 [Gemcitabine hydrochloride; Gemcitabine HCl] | 0.202 ± 0.0062 | 1.04 ± 0.015 | 0.422 ± 0.044 | 1.03 | 0.0536 ± 0.0027 | 1.013 ± 0.0058
24 | CO[C@H]1C[C@@H]2CC[C@@H](C)[C@@](O)(O2)C(=O)C(=O)N2CCCC[C@H]2C(=O)O[C@H]([C@H](C)C[C@@H]2CC[C@@H](OCCO)[C@H](OC)C2)CC(=O)[C@H](C)/C=C(\C)[C@@H](O)[C@@H](OC)C(=O)[C@H](C)C[C@H](C)/C=C/C=C/C=C/1C [Everolimus; Everolimus(RAD001)] | 1.023 ± 0.0058 | 0.769 ± 0.019 | 1.02 ± 0.011 | 0.879 ± 0.017 | 1.003 ± 0.0058 | 0.642 ± 0.034
25 | CO[C@H]1C[C@@H]2CC[C@@H](C)[C@@](O)(O2)C(=O)C(=O)N2CCCC[C@H]2C(=O)O[C@H]([C@H](C)C[C@@H]2CC[C@@H](OCCO)[C@H](OC)C2)CC(=O)[C@H](C)/C=C(\C)[C@@H](O)[C@@H](OC)C(=O)[C@H](C)C[C@H](C)/C=C/C=C/C=C/1C [Everolimus (RAD001)] | 0.814 ± 0.02 | 0.765 ± 0.01 | 0.82 ± 0.01 | 0.814 ± 0.038 | 0.732 ± 0.06 | 0.667 ± 0.0087
